Measured values published in the supplement of paper PMC12645437, “Orthogonal IMiD-Degron Pairs Induce Selective Protein Degradation in Cells” (ACS Chemical Biology, 2025).
Some of the results follow.

B1: Q9UKT9 (peptide)
chain: LVCPICGFKCTQKGNLLRHIKL
B2: Q9UKT9 (peptide)
chain: FNCNICGAPFTQKGNLLRHIKL
B3: Q9UKT9 (peptide)
chain: FNCEICGHEFTQKGNLLRHIKL
B4: Q9UKT9 (peptide)
chain: LLCNQCGFVCTQKGNLLRHIKL
B5: Q9UKT9 (peptide)
chain: FKCEICGAWFTQKGNLLRHIKL
B6: Q9UKT9 (peptide)
chain: FFCEICGHHFTQKGNLLRHIKL
B7: Q9UKT9 (peptide)
chain: FQCNICGASFTQKGNLLRHIKL
B8: Q9UKT9 (peptide)
chain: FRCDICGAYFTQKGNLLRHIKL
B9: Q9UKT9 (peptide)
chain: FSCDQCGATFTQKGNLLRHIKL
B10: Q9UKT9 (peptide)
chain: FQCDICGAHFTQKGNLLRHIKL
B11: Q9UKT9 (peptide)
chain: FECNQCGRGFTQKGNLLRHIKL
B12: Q9UKT9 (peptide)
chain: FDCPICGHPFTQKGNLLRHIKL
B13: Q9UKT9 (peptide)
chain: LQCEICGFHCTQKGNLLRHIKL
B14: Q9UKT9 (peptide)
chain: FCCPICGAWFTQKGNLLRHIKL
B15: Q9UKT9 (peptide)
chain: FICEICGHSFTQKGNLLRHIKL
B16: Q9UKT9 (peptide)
chain: FFCNVCGADFTQKGNLLRHIKL
B17: Q9UKT9 (peptide)
chain: FACEICGAQFTQKGNLLRHIKL
B18: Q9UKT9 (peptide)
chain: FGCEICGAIFTQKGNLLRHIKL
B19: Q9UKT9 (peptide)
chain: FVCEICGAGFTQKGNLLRHIKL
B20: Q9UKT9 (peptide)
chain: FDCEVCGAMFTQKGNLLRHIKL
B21: Q9UKT9 (peptide)
chain: LRCPICGFQCTQKGNLLRHIKL
B22: Q9UKT9 (peptide)
chain: FVCNQCGAGFTQKGNLLRHIKL
B23: Q9UKT9 (peptide)
chain: FYCPICGHHFTQKGNLLRHIKL
B24: Q9UKT9 (peptide)
chain: FVCDICGALFTQKGNLLRHIKL
B25: Q9UKT9 (peptide)
chain: FQCNQCGHNFTQKGNLLRHIKL
B26: Q9UKT9 (peptide)
chain: FCCPICGHEFTQKGNLLRHIKL
B27: Q9UKT9 (peptide)
chain: FICNICGAAFTQKGNLLRHIKL
B28: Q9UKT9 (peptide)
chain: FDCEQCGAAFTQKGNLLRHIKL
B29: Q9UKT9 (peptide)
chain: FTCNQCGHHFTQKGNLLRHIKL
B30: Q9UKT9 (peptide)
chain: FSCEQCGAEFTQKGNLLRHIKL
B31: Q9UKT9 (peptide)
chain: FWCNICGAMFTQKGNLLRHIKL
B32: Q9UKT9 (peptide)
chain: FQCDVCGAVFTQKGNLLRHIKL

These sequences were tested against no compound (DMSO) (assay: log2 fold change of degron read counts, EGFP-low vs EGFP+ sorted cells; higher = lower degron-EGFP level without compound (poor expression or instability)). Conditions: compound: DMSO control; 18 h.
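Note: jurkat cells carrying a lentiviral library of mutant zinc finger degrons fused to EGFP plus mCherry, mCherry+ cells FACS sorted, degron abundance counted by next-generation sequencing.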

| Sequence | log2 fold change of degron read counts |
| --- | --- |
| B1 | 0.146 |
| B2 | 0.244 |
| B3 | -1.39 |
| B4 | 1.11 |
| B5 | -0.746 |
| B6 | -1.73 |
| B7 | -0.292 |
| B8 | -0.232 |
| B9 | -1.55 |
| B10 | -1.43 |
| B11 | -1.13 |
| B12 | -1.66 |
| B13 | -0.159 |
| B14 | 1.11 |
| B15 | -1.23 |
| B16 | 0.137 |

| Sequence | log2 fold change of degron read counts |
| --- | --- |
| B17 | -2.83 |
| B18 | 0.0517 |
| B19 | -1.25 |
| B20 | -0.781 |
| B21 | 0.294 |
| B22 | -3.08 |
| B23 | 0.0166 |
| B24 | -1.22 |
| B25 | -0.569 |
| B26 | -1.09 |
| B27 | -0.481 |
| B28 | -1.57 |
| B29 | -0.798 |
| B30 | -2.37 |
| B31 | 0.792 |
| B32 | -1.47 |
